Results from the supplement of paper PMC4166925.
± gives the standard deviation of the averaged measurements. The full ranking holds about 33,000 sequences; the median of “E-score (dimensionless, -0.5 to 0.5)” is about -0.049, and the highest 2% start at about 0.37. This is one part of the list.

The sequences below were run on T1, PmTbr T-box DNA-binding domain (GST fusion) (assay: PBM E-score of 8-mer (E-score (dimensionless, -0.5 to 0.5)); Tbr is Tbrain of the sea star Patiria miniata (Pm) or the sea urchin Strongylocentrotus purpuratus (Sp); higher = stronger binding preference; most listed sequences are background and not binding sites). Settings: the construct has about 5 more residues each side.
T1 sequence: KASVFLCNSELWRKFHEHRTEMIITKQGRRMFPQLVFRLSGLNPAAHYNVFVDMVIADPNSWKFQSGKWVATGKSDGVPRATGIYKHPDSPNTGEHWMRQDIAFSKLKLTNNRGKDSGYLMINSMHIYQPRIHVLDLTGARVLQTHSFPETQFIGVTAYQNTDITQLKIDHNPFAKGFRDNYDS
In short: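 Expression of GST-fused Tbr T-box DNA-binding domains, each holding the full T-box plus roughly five flanking residues, was carried out in BL21 E. coli at 20 °C, with purification by glutathione affinity chromatography. Universal Agilent arrays made double-stranded by primer extension were incubated with the protein at 200 nM in PBS (pH 7.5), then scanned and quantified. All ungapped 8-mers were scored from probe intensities, and each received an enrichment E-score from the Universal PBM Analysis Suite, averaged over duplicate arrays.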

Sequence	PBM E-score of 8-mer
CCGAGCAA	-0.2992 ± 0.0028
CAGATAGA	-0.1661 ± 0.001
CCGTGGTC	0.00288 ± 0.032
GGAAGCCA	-0.15 ± 0.044
CCGCACCA	0.187 ± 0.0087
AGTATAGA	-0.159 ± 0.016
AATGTACG	-0.101 ± 0.005
AAGACAAT	-0.0638 ± 0.0098
CCTTCTAC	-0.124 ± 0.028
ACAGTTCC	0.187 ± 0.036
CGCGGCCG	-0.0498 ± 0.018
GTGCTTCA	-0.105 ± 0.061
CTTCTTGC	-0.0189 ± 0.0043
ACGCCCCA	0.225 ± 0.022
CGCCAGCC	0.0394 ± 0.03
ACACTGGC	0.0286 ± 0.049
GGGAAGCA	-0.135 ± 0.035
CGGCGGAC	-0.105 ± 0.012
TACAGAGA	-0.0283 ± 0.066
CGTTCCAG	-0.142 ± 0.013
ACTTGGGG	0.0475 ± 0.047
GCAACTGC	0.095 ± 0.016

Sequence	PBM E-score of 8-mer
CCAGAGAA	0.0215 ± 0.056
AATGCCCA	-0.158 ± 0.024
ATCTCGGC	-0.0253 ± 0.012
GCCCATTA	-0.282 ± 0.064
ACAATAAG	0.063 ± 0.063
CAAAAAAC	0.0888 ± 0.075
GACAAACC	0.0399 ± 0.017
AGAAATGA	-0.133 ± 0.034
TACCAGAA	-0.126 ± 0.082
ATGACCCC	-0.262 ± 0.087
CGTTCGAC	0.0978 ± 0.017
ACCGACTC	-0.012 ± 0.041
AAGTAGAG	-0.085 ± 0.0023
GGGCTGAC	-0.0982 ± 0.021
CTATTACC	-0.265 ± 0.056
ACGGGTAC	-0.00756 ± 0.077
CCAGTGGC	-0.00243 ± 0.053
TAAAATGA	-0.0515 ± 0.079
AAGGTCGG	-0.123 ± 0.037
ACACATCT	0.325 ± 0.019
CCCACTAA	-0.0718 ± 0.0015
AATAAGTG	0.29 ± 0.02

Sequence	PBM E-score of 8-mer
AGCTTCTA	-0.158 ± 0.062
CAGAGTCC	-0.212 ± 0.1
CCCAGCTC	-0.138 ± 0.066
GAATCCTC	-0.159 ± 0.068
CGTGGCAC	0.233 ± 0.052
CTTTAGGC	0.0663 ± 0.057
ACGTACAA	0.0556 ± 0.0092
CCCTAGCC	-0.19433 ± 0.00014
GCCCGGCA	0.0239 ± 0.091
CTCAACGA	-0.1 ± 0.049
ATGACGCA	-0.0538 ± 0.042
ATGGGAGG	-0.271 ± 0.082
CGGGTGTA	0.0538 ± 0.035
TACAGCGA	-0.106 ± 0.033
GCTTTCCC	0.129 ± 0.068
CTTGTACC	-0.144 ± 0.037
AAGGTTAC	-0.145 ± 0.017
AAATGGCT	-0.12 ± 0.052
ATTCAATG	-0.333 ± 0.03
ATCGTCTC	-0.0822 ± 0.054
ACTACTAC	-0.105 ± 0.064
TGCATGCA	-0.442 ± 0.0075

Sequence	PBM E-score of 8-mer
AGCTCGTA	-0.0963 ± 0.06
CCAGCCAA	0.0372 ± 0.039
AGCTCACT	-0.0593 ± 0.0093
CGTTGCTA	0.0731 ± 0.047
AGTTCGTG	0.0689 ± 0.063
AGCTATCG	0.125 ± 0.0093
CTTAACGA	0.0542 ± 0.021
CGTGTTGA	0.295 ± 0.028
CGCGGCAA	0.1835 ± 0.0003
CCTCGTAG	-0.00827 ± 0.04
GTACTTGA	-0.0223 ± 0.03
ATTTCATA	-0.124 ± 0.14
ACTACATG	-0.0372 ± 0.047
GTCAGGCA	-0.0706 ± 0.019
ATCTACGG	-0.272 ± 0.019
CGGATACG	-0.138 ± 0.046
ACAAAGAG	0.0508 ± 0.043
CAGTCGGC	-0.0348 ± 0.016
CAGTGATG	-0.0435 ± 0.14
AAAAAATC	0.106 ± 0.12
ACTTGGAC	-0.0396 ± 0.025
GGGGGGAC	-0.339 ± 0.0087

Sequence	PBM E-score of 8-mer
CCGCTGAG	-0.05 ± 0.068
ACCTGCCG	0.229 ± 0.033
ACCTTCTC	0.0744 ± 0.018
AGCGGCTA	0.0512 ± 0.065
ATTGCGCC	0.0332 ± 0.0025
AGACATAG	-0.0931 ± 0.0015
TCAATGAA	-0.145 ± 0.076
AGAACACA	0.154 ± 0.0065
AGGTTAGC	0.0849 ± 0.028
CTATGTGA	0.209 ± 0.023
CGAACATA	-0.068 ± 0.025
GGATCCCA	-0.0577 ± 0.036
GCACCTAC	0.382 ± 0.0042
TAGACCAA	-0.0333 ± 0.022
CAGTCAAG	-0.0211 ± 0.039
AGGAGTAC	-0.05 ± 0.089
AATTTTAT	-0.0919 ± 0.057
CACCATTC	0.312 ± 0.025
ACCAATGA	-0.0935 ± 0.0071
AGTCCGAA	-0.0518 ± 0.044
ATAGTTGG	-0.0556 ± 0.062
